About 5,300 (4.4%) of roughly 120,000 compounds were called active. The inconclusive results got no clear call from the source; some entries with a clear call stand among them for comparison. Calls follow the shape of the dose curve; as a rule, active = well fitted inhibition curve with a large enough effect; inconclusive = small, poorly fitted or top-dose-only effect; inactive = no such curve, though single readings can be large or run the other way. Where the call is inconclusive, the potency comes from a doubtful curve fit.
Experiment: qHTS Primary assay for Inhibitors of Plasmodium falciparum Dd2 growth in vitro; also: nearly all actives have a fitted effect of over 65% in size;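 as to activity, negative = inhibition: plate controls were DMSO vehicle for no effect and reference drug for full effect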
Conditions: P. falciparum Dd2 growth, SYBR Green, 72 h; activity, negative = inhibition: at 28.9 µM (top of the series) unless noted; series mostly up to 28.9 µM
Outline: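 Infected erythrocytes (Dd2, 0.3% parasitemia, 2.5% hematocrit final) are added to compound in RPMI-1640/Albumax II medium, grown 72 h at 37C in low oxygen, then lysed with saponin/Triton-X containing SYBR Green and read by fluorescence.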
In the case of `Cc1ccc(OCc2nc(C3CCN(C(=O)c4ccco4)CC3)no2)cc1`, the Potency is reported as inconclusive: 17.8 µM [inhibitor, single point].
In the case of `O=C(Nc1ccc(-c2nnc3n2CCCC3)cc1)c1ccsc1`, the Potency is reported as inconclusive: 17.8 µM [inhibitor, single point].
For `CCOCC(=O)NC1CCN(c2cnn(C)c(=O)c2)CC1`, the “activity, negative = inhibition” value was inactive: 20.1%.
For `O=C1NCc2ccccc2CC12CCN(Cc1ccccc1C(F)(F)F)C2` (stereo not drawn), the Potency was inconclusive: 17.8 µM [inhibitor, single point].
In the case of `COCCN1C(=O)c2cccn2CC1CNC(=O)CCc1c[nH]c2ccccc12` (stereo not drawn), the Potency is reported as inconclusive: 2.51 µM [inhibitor, single point].
For `O=C(NCCc1ccc(Cl)cc1)c1nc(-c2ccc(Cl)cc2Cl)c2cnccn12`, the Potency was active: 4.47 µM.
For `COCCn1cc(CN2CCN(Cc3ccccc3F)CC2)ccc1=O`, the “activity, negative = inhibition” value was inactive: 22.5%.
For `Cc1nnnn1-c1cccc(C(=O)N2CCCC(O)(CN(C)C)CC2)c1` (stereo not drawn), the “activity, negative = inhibition” value was inactive: 3.7%.
For `COc1ccc(CN2CCC3(C2)C(=NC2CCCC2)NC(=O)N3c2cccc(OC)c2)cc1` (stereo not drawn), the Potency was inconclusive: 8.91 µM [inhibitor, single point].
In the case of `CC(C)NC(=O)NCC1Cn2cccc2CN1C` (stereo not drawn), the Potency is reported as inconclusive: 11.2 µM [inhibitor, single point].
For `COc1ccc(N2CCN(C(=O)c3ccc4c(c3)N(C)C3CCCCN3C4=O)CC2)cc1` (stereo not drawn), the Potency was inconclusive: 3.55 µM [inhibitor, partial curve, poor fit].
For `O=C(NCc1ccncc1)C1c2ccccc2C(=O)N(C2CCCC2)C12CCCCC2` (stereo not drawn), the “activity, negative = inhibition” value was inactive: -17.3%.
In the case of `Cc1ccc(-n2c(=O)c3oc4ccccc4c3n(Cc3ccccc3)c2=O)cc1C`, the Potency is reported as inconclusive: 20 µM [inhibitor, single point].
In the case of `COCC(=O)N1CCC(OC2CCN(Cc3cccnc3)CC2)CC1`, the “activity, negative = inhibition” value is reported as inactive: 88.9%.
In the case of `COc1ccc(C2Cn3nnc(-c4noc(/C=C/c5ccco5)n4)c3CO2)cc1` (stereo not drawn), the Potency is reported as inconclusive: 2.82 µM [inhibitor, single point].
In the case of `CC(=O)NCCNC(=O)[C@@H]1Cc2cn(Cc3c(C)noc3C)c3cccc(c23)[C@H](CC(C)C)N1`, the Potency is reported as inconclusive: 1.26 µM [inhibitor, partial curve, poor fit].
In the case of `O=C(c1ccoc1)N1CCCCC1c1nc(CCOCC2CCOCC2)no1` (stereo not drawn), the “activity, negative = inhibition” value is reported as inactive: 6.18%.
With `CN1C(=O)CCCCC1C(=O)NCCCN1CCc2ccccc2C1` (stereo not drawn) the Potency was inconclusive: 7.94 µM [inhibitor, partial curve, poor fit].
With `COc1ccc(Nc2nccc3c(=O)cc(-c4cn[nH]c4)oc23)cc1OC` the Potency was inconclusive: 1.58 µM [inhibitor, partial curve, poor fit].
In the case of `CN(C)C(=O)c1nc(C(C)(C)C)c2cnccn12`, the Potency is reported as inconclusive: 12.6 µM [inhibitor, partial curve, poor fit].
In the case of `CC(=O)N1CCOC[C@H](Oc2ccc(S(C)(=O)=O)cc2)C1`, the “activity, negative = inhibition” value is reported as inactive: 3.82% [at 44.1 µM].
In the case of `COc1ccc(Br)cc1C1SCC(=O)Nc2c1c(C)nn2-c1ccccc1C` (stereo not drawn), the Potency is reported as inconclusive: 10 µM [inhibitor, single point].
With `COc1ccc(-c2noc(CC3CCN(C(=O)C4(c5ccc(OC)cc5)CC4)CC3)n2)cc1` the Potency was inconclusive: 11.2 µM [inhibitor, single point].
In the case of `Cc1ccc(C(=O)N2CCC3(CC2)N=C(c2ccc(Cl)cc2)NO3)s1`, the Potency is reported as inconclusive: 3.98 µM [inhibitor, single point].
For `O=C1CC(c2ccccc2)N(C(=O)CNC(=O)CN2CCOCC2)CCCCCN1` (stereo not drawn), the “activity, negative = inhibition” value was inactive: -5.8%.
With `CS(=O)(=O)c1ncc(N(Cc2ccco2)Cc2cccs2)c(C(=O)Nc2ccccc2F)n1` the Potency was inconclusive: 20 µM [inhibitor, partial curve, poor fit].
With `COc1ccc(Cl)cc1NC(=O)C(C)n1c(=O)cc(C(F)(F)F)c2c(C)nn(C)c21` (stereo not drawn) the Potency was inconclusive: 8.91 µM [inhibitor, partial curve, poor fit].
With `CCc1c(C)sc2c1CCN(C(=O)Nc1ccccc1Cl)C2c1ccc(OC)cc1` (stereo not drawn) the Potency was inconclusive: 17.8 µM [inhibitor, single point].
In the case of `CCC(=O)Nc1ccc(OCC(=O)NCc2ccccc2OC(C)CC)cc1` (stereo not drawn), the Potency is reported as inconclusive: 17.8 µM [inhibitor, single point].
In the case of `O=C1NC2(CCN(Cc3ccccc3)C2)COc2ccccc21` (stereo not drawn), the Potency is reported as active: 10 µM.
With `CN1C[C@@H](NC(=O)c2ccccc2)C[C@H]1c1nc(-c2ccc3c(c2)OCO3)no1` the Potency was inconclusive: 17.8 µM [inhibitor, single point].
In the case of `O=C(CC1CCCC1)N1CCOc2ccc(CN3CCc4ccccc4C3)cc2C1`, the Potency is reported as active: 5.01 µM.
With `CN(CC1CCOCC1)S(=O)(=O)c1ccc(C(F)(F)F)cc1` the Potency was inconclusive: 0.355 µM [inhibitor, full curve, poor fit].
For `O=C(c1ccco1)N1CCC[C@H]1c1nc(-c2ccccc2)no1`, the Potency was inconclusive: 17.8 µM [inhibitor, single point].
With `O=[S+]([O-])(c1ccccc1)N1CC(Oc2ccc3c(c2)OCO3)C1` the “activity, negative = inhibition” value was inactive: -6.47%.
With `O=C(C1CCCC1)N1Cc2ccccc2CC2(CCN(Cc3ccncc3)C2)C1` (stereo not drawn) the Potency was inconclusive: 15.8 µM [inhibitor, partial curve, poor fit].
With `C#CCN(C)C(=O)C[C@@H]1CCNC[C@@H]1Cc1cc(COc2ccccc2)on1` the Potency was active: 10 µM.
In the case of `COC(=O)c1sccc1NC(=O)N1[C@H]2CC[C@@H]1c1cncnc1C2`, the “activity, negative = inhibition” value is reported as inactive: -13.6%.
With `CCN1CCN(C(=O)Cn2c(-c3cccs3)cc3cc(Cl)ccc32)CC1` the Potency was inconclusive: 11.2 µM [inhibitor, single point].
With `COC(=O)CNC(=O)c1nc(-c2cccc(C(F)(F)F)c2)c2ccccn12` the Potency was inconclusive: 11.2 µM [inhibitor, single point].
For `COc1ccccc1CC(=O)N1CCN(c2cc(-c3ccccc3)[nH]n2)CC1`, the Potency was inconclusive: 7.94 µM [inhibitor, partial curve].
In the case of `CCCS(=O)(=O)c1nc(S(=O)(=O)c2ccc(C)cc2)c(NCC(C)C)s1`, the Potency is reported as active: 8.91 µM.
With `CC1CCN(S(=O)(=O)c2ccc3c(ccc(=O)n3CC(=O)NCc3ccccc3)c2)CC1` the Potency was inconclusive: 20 µM [inhibitor, partial curve, poor fit].
In the case of `CC(CNc1nc2ccccc2c2nc(-c3ccccc3)nn12)c1ccccc1` (stereo not drawn), the Potency is reported as inconclusive: 17.8 µM [inhibitor, single point].
For `CCNC(=O)N1CCCCCC1CN1CCc2ccccc2C1` (stereo not drawn), the Potency was inconclusive: 1.41 µM [inhibitor, full curve, poor fit].
For `O=C(NCc1ccc2c(c1)OCO2)C1CCN(C(=O)c2ncn3c2COC(c2ccccc2)C3)CC1` (stereo not drawn), the “outcome” value was “inactive”.
For `COc1ccc(CN2CCc3nc(C4CC4)nc(-c4ccc(OC)cc4)c3CC2)cc1`, the Potency was inconclusive: 10 µM [inhibitor, single point].
For `Cc1nc2c(-c3ccccc3)c(C)[nH]n2c(=O)c1Cc1ccc(Br)cc1`, the Potency was active: 7.94 µM.
For `CC1=NS(=O)(=O)N(C)C=C1C(=O)OCc1noc(-c2ccccc2Cl)n1`, the “activity, negative = inhibition” value was inactive: 15.5%.
With `CC1CCCCN1Cc1c(O)ccc2c(=O)c(-c3ccc(Cl)cc3)coc12` (stereo not drawn) the Potency was active: 2.24 µM.
For `C=CCN1CC2(CCC1=O)CCN(Cc1cccc(C#N)c1)CC2`, the “activity, negative = inhibition” value was inactive: -22.8%.
For `Cc1ccc(-n2nc(-c3c(C)nc4scc(CC(=O)Nc5ccc(F)cc5)n4c3=O)cc2C)cc1`, the Potency was inconclusive: 12.6 µM [inhibitor, single point].
In the case of `CS(=O)(=O)N1CC2(CCCN2C2COC2)Cc2ccccc21` (stereo not drawn), the activity, negative = inhibition is reported as inconclusive: -48.3% [inhibitor].
In the case of `CCCS(=O)(=O)N1CCCC(c2nc(C(C)C)no2)CCNC(=O)CC1` (stereo not drawn), the “activity, negative = inhibition” value is reported as inactive: 16.5%.
In the case of `Cc1ccsc1CN(C)C1CCc2nn(CC3CC3)c(=O)n2CC1` (stereo not drawn), the “activity, negative = inhibition” value is reported as inactive: 14.1%.
With `CSCC[C@@H]1NC(=O)c2cc(NC(=O)c3cc(-c4ccccn4)n[nH]3)ccc2NC1=O` the “activity, negative = inhibition” value was inactive: -20.2%.
With `Cc1nc2ccc(C(=O)N[C@@H]3CCOC[C@H]3Oc3ccccn3)cc2s1` the “activity, negative = inhibition” value was inactive: -5.6%.
With `COc1ccccc1NC(=O)C1=C(C)Nc2nc(-c3ccco3)nn2C1c1cccc(C)c1` (stereo not drawn) the Potency was inconclusive: 8.91 µM [inhibitor, single point].
With `Cc1ccc(CN2CCC(N3CCCC(C(=O)NCCc4ccccc4)C3)CC2)o1` (stereo not drawn) the Potency was inconclusive: 5.01 µM [inhibitor, partial curve].
With `O=c1c2nc(NCc3cccs3)ccc2ncn1Cc1ccccc1` the Potency was inconclusive: 12.6 µM [inhibitor, partial curve].
For `CC(C)S(=O)(=O)N1CCC(F)(c2nc(-c3ccccc3)no2)CC1`, the “activity, negative = inhibition” value was inactive: -12.6%.
In the case of `CC(C)(C)OC(=O)N1CCC(c2c(C(=O)NCc3ccco3)cnn2-c2ccc(F)cc2F)CC1`, the Potency is reported as inconclusive: 11.2 µM [inhibitor, single point].
With `COc1cc(OC)cc(-c2nc3nc(C)c(CCC(=O)Nc4ccccc4)c(C)n3n2)c1` the Potency was inconclusive: 8.91 µM [inhibitor, single point].
With `COCCn1cnc2ccc(-c3cccc(O)c3)nc2c1=O` the “activity, negative = inhibition” value was inactive: -7.89% [at 44.1 µM].
With `CC(=O)c1ccc(N2CCN(C(=O)Nc3cn(CC(C)C)c(=O)c4ccccc34)CC2)cc1` the Potency was inconclusive: 10 µM [inhibitor, single point].
With `Cc1ccccc1C(=O)NC1CCN(c2cc(-c3ccccc3)[nH]n2)C1` (stereo not drawn) the Potency was inconclusive: 3.98 µM [inhibitor, single point].
With `CC(C)(C)C(=O)Cn1c(=O)n(CCCCCC(=O)NCc2ccccc2Cl)c(=O)c2sccc21` the Potency was inconclusive: 10 µM [inhibitor, single point].
For `O=C(NCc1ccccc1C(F)(F)F)c1cccc2c1CCN2C(=O)C1CC1`, the Potency was inconclusive: 10 µM [inhibitor, single point].
Potency is read from the fitted curve at half-maximal effect; tags tell the direction and shape of the fitted curve.
